Measured values as given in the supplement of paper PMC4166925.
± gives the standard deviation of the averaged measurements. Over roughly 33,000 sequences, “E-score (dimensionless, -0.5 to 0.5)” has its median near -0.046; the highest 2% begin near 0.36. Some of the results follow.

tested on: T1, SpTbr T-box DNA-binding domain (GST fusion); assay: PBM E-score of 8-mer (E-score (dimensionless, -0.5 to 0.5)); Tbr is Tbrain of the sea star Patiria miniata (Pm) or the sea urchin Strongylocentrotus purpuratus (Sp); higher = stronger binding preference; most listed sequences are background and not binding sites; settings: the construct has about 5 more residues each side
T1 sequence: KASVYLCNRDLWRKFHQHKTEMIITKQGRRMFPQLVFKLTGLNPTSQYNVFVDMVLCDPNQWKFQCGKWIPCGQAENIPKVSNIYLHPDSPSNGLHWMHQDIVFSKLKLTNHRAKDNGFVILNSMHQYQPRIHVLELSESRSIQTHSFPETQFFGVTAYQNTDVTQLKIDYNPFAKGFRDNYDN
Summary of the method: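 Universal Agilent oligonucleotide arrays, made double-stranded by primer extension, were incubated with 200 nM GST-fused Tbr T-box DNA-binding domain in PBS (pH 7.5). The protein was expressed in BL21 E. coli at 20 °C and purified by glutathione affinity chromatography. After scanning and quantification, the Universal PBM Analysis Suite assigned an enrichment E-score to each ungapped 8-mer, averaged over duplicate arrays.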

Sequence	PBM E-score of 8-mer
AGAAACGC	0.0384 ± 0.025
ATGTCCGG	-0.168 ± 0.037
CGTCGTCA	0.234 ± 0.02
TCGAACCA	-0.0192 ± 0.024
GCAAGAGA	-0.0297 ± 0.023
GGCGGTTA	-0.133 ± 0.03
GCTCGTAC	-0.201 ± 0.033
ACCGATTC	-0.197 ± 0.059
GAATCATC	0.0208 ± 0.0082
CATCTGAA	-0.0344 ± 0.037
AGTCAGGC	-0.353 ± 0.006
ATAGACTG	-0.0471 ± 0.019
CGAAACTC	-0.0132 ± 0.026
CCGGAACG	-0.181 ± 0.022
AAGGATCT	-0.106 ± 0.045
AGCAGGAA	-0.193 ± 0.0089
CTGTGATA	0.23 ± 0.055
ATCCGAAT	-0.313 ± 0.019
ACCTCTAA	-0.141 ± 0.051
AGGCTGGG	-0.179 ± 0.012
CGATATTC	-0.0678 ± 0.032
AATACATG	-0.259 ± 0.037
ACGACCAG	-0.0248 ± 0.076
TGTATTAA	-0.0603 ± 0.0022
CTGTGGTC	-0.0438 ± 0.0053

Sequence	PBM E-score of 8-mer
AGCATTAA	-0.18 ± 0.02
ACGCGCGC	0.189 ± 0.056
AAACCCCA	-0.182 ± 0.086
CTATCAGA	-0.122 ± 0.0019
GCCGACCC	-0.201 ± 0.12
ACTGTTGC	0.0339 ± 0.0018
GAGTCAAA	-0.0961 ± 0.078
AGCTAAGA	0.0389 ± 0.044
ACGTCATC	0.0752 ± 0.022
CATTCTCG	0.183 ± 0.031
CCATGGGC	-0.0862 ± 0.0082
ATTGATAC	0.018 ± 0.01
CACATAAA	0.109 ± 0.0063
GGTGTGAC	0.4822 ± 0.0041
CAACACTC	0.335 ± 0.013
CGCCCATA	-0.00613 ± 0.11
TAGTCAGA	-0.109 ± 0.017
GCCGTGTA	-0.0136 ± 0.0036
CGTCGTAG	-0.185 ± 0.011
CGAGCGAA	0.00717 ± 0.0014
TTGCCCAA	-0.0575 ± 0.067
GTCGAGAC	-0.212 ± 0.029
CCTTGACC	-0.176 ± 0.12
GGCGAGAA	0.3394 ± 0.00085
AGTCCGTG	-0.132 ± 0.013

Sequence	PBM E-score of 8-mer
CTGAACTA	-0.28 ± 0.051
GAGGGTCC	-0.294 ± 0.0065
AACTCATG	-0.141 ± 0.073
AATTGCAG	0.0374 ± 0.022
ACGGCACG	0.0963 ± 0.067
CGTATGTA	-0.0808 ± 0.044
TACTCACA	0.371 ± 0.0028
CATGATCC	-0.093 ± 0.079
GCGCCGAA	0.126 ± 0.031
ACCCAGCC	-0.1851 ± 0.0011
GGCGGTCA	-0.174 ± 0.041
TAGTTAAA	-0.218 ± 0.051
CCTACCTA	-0.204 ± 0.043
AAAGCCGA	-0.0588 ± 0.082
CAGAGCCC	-0.0694 ± 0.033
CCGTGGGA	-0.0775 ± 0.076
AGATGTTA	0.0658 ± 0.027
TGAATTCA	0.031 ± 0.053
AAAAAGTT	0.103 ± 0.042
GGACATCA	-0.0621 ± 0.043
CAGATACG	-0.000715 ± 0.0066
AAACGCCT	0.132 ± 0.038
AGATATGA	-0.103 ± 0.069
CCACGTCA	0.0492 ± 0.0049
GATCGTGA	0.173 ± 0.054

Sequence	PBM E-score of 8-mer
CGCTCAGC	-0.178 ± 0.072
CGAGTGAA	0.05115 ± 0.00042
GAAATGTA	-0.0526 ± 0.065
CGTCTGCA	-0.00521 ± 0.008
CTCGAAGA	-0.174 ± 0.085
ATCTAGAC	-0.23 ± 0.083
GTCTGAGA	-0.124 ± 0.049
GACTTCCA	-0.284 ± 0.042
CATCTCAA	-0.12 ± 0.0027
AAATCTCA	0.134 ± 0.053
TGACCGCA	-0.119 ± 0.11
CAGAATAC	-0.126 ± 0.034
CCCCGCAC	0.269 ± 0.0047
AATGTAAC	0.0497 ± 0.024
AGCAAATC	-0.0137 ± 0.0026
GGAGAGGA	-0.0689 ± 0.018
AGGGTCAC	0.196 ± 0.03
CCAATCCG	0.0266 ± 0.074
GAGGGTTA	0.0452 ± 0.071
TAAATGTA	-0.0999 ± 0.021
CAAGCTTC	-0.215 ± 0.013
ACGGAACA	-0.163 ± 0.11
ACCGGCTG	-0.341 ± 0.076
CTTACTGC	0.0114 ± 0.027
ACCGCGAA	0.313 ± 0.022

Sequence	PBM E-score of 8-mer
GCGACGTA	-0.165 ± 0.025
CATACCCC	-0.106 ± 0.031
GTTATCAA	0.138 ± 0.053
CCAATAAC	-0.0379 ± 0.13
GGTCATAC	-0.0253 ± 0.019
GCCCCTCA	-0.0552 ± 0.047
AACGTGAA	0.0888 ± 0.008
ATCAGCGA	0.125 ± 0.096
CTTATGGA	-0.213 ± 0.0064
ATCGATCG	0.0659 ± 0.059
ATGATGGA	-0.179 ± 0.029
AATAGCTC	-0.111 ± 0.0098
CGACACGC	0.159 ± 0.07
CAGGCTGG	-0.19 ± 0.0044
CTAATCCC	-0.263 ± 0.0044
AAGCACAC	0.247 ± 0.013
ATCCCGGC	-0.278 ± 0.07
CTATCGGA	-0.103 ± 0.016
AAAGCGCG	0.308 ± 0.038
CTAGACCC	0.0375 ± 0.0037
ATTTCCGA	-0.0828 ± 0.028
TGTTTCAA	-0.0693 ± 0.047
GCAATATA	-0.0884 ± 0.05
AAGTCTGC	0.11 ± 0.015
AAACAGCA	0.0649 ± 0.055

Sequence	PBM E-score of 8-mer
AACAAAGA	0.00197 ± 0.012
CTGGAGTA	-0.0122 ± 0.001
CTGTGCGA	0.27 ± 0.022
CGTGAGTC	0.13 ± 0.048
GCTACGGA	-0.1717 ± 0.00057
CAACACGC	0.203 ± 0.0098
CGCCCATC	-0.0428 ± 0.069
AGACTTCG	-0.0905 ± 0.069
ACGCCTAA	0.249 ± 0.0043
ACCCCCAA	0.126 ± 0.023
AAACCTCC	-0.246 ± 0.0086
AGTTCTGC	-0.323 ± 0.021
ACTAATAA	-0.0725 ± 0.085
CGCGTACG	0.0774 ± 0.069
CGATCTAG	-0.0149 ± 0.058
ACTCCGAT	-0.0758 ± 0.0044
ATGGGCTC	-0.162 ± 0.028
AGACCTTG	-0.19 ± 0.022
AGGTTGAG	-0.09 ± 0.024
TGTCCGAA	-0.0937 ± 0.021
ATAATGAC	-0.00677 ± 0.0048
CTGCGCCA	0.117 ± 0.055
AACTTCGC	0.0929 ± 0.044
ACAGGAGC	0.0435 ± 0.11
AACCTCTA	-0.187 ± 0.065

Sequence	PBM E-score of 8-mer
CTGTTTTC	0.0255 ± 0.037
GTGCGGTA	0.129 ± 0.033
CCAGCAGG	-0.149 ± 0.021
CTTACTCA	-0.0364 ± 0.05
AGCTCAAT	-0.176 ± 0.04
AGTAGAGC	-0.0394 ± 0.027
AACTGGAG	-0.0594 ± 0.019
AGGTCTGC	-0.314 ± 0.03
ATAGAAAC	-0.238 ± 0.0062
AACGTATC	-0.117 ± 0.03
CCGGTACC	-0.145 ± 0.0012
GTAAGGAC	-0.131 ± 0.13
GTAACGGA	-0.0633 ± 0.048
AAGAGCTT	-0.291 ± 0.062
GTTTAAAC	-0.0757 ± 0.07
ACAGGACG	0.0443 ± 0.025
AATACTAC	-0.16 ± 0.02
AGTAGACG	0.0449 ± 0.043
ACGCTATC	0.121 ± 0.026
GAAGTGTA	0.304 ± 0.0081
CCTCCGTC	-0.16 ± 0.014
GATTCCAA	-0.0169 ± 0.036
